# Test results published in PubChem BioAssay (NCI).
# Where “and” joins values, the source holds several entries; their conditions need not be identical. Identical values can stand only once.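 How tested: cells in 96-well plates exposed to compound for 48 hours at five concentrations. Here, GI50 denotes the concentration required for 50% inhibition of growth. The concentration for full growth arrest is given as TGI.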
# System: NCI-H322M lung
# Test: NCI tumour cell line growth inhibition, 48 h
Compound,GI50,TGI
Cc1ccc(/C=C2\COc3ccc(O)c(O)c3C2=O)cc1,2.6 µM,11.3 µM
O=C(Cc1csc2nc(-c3ccc(Br)cc3)cn12)N/N=C/c1ccccc1,19 µM,94 µM
O=[N+]([O-])C(=C1NCCN1)C(Cl)=C(Cl)Cl,–,> 100 µM
COc1ccc([As]=[As]c2ccc(OC)c(NCS(=O)(=O)O)c2)cc1NCS(=O)(=O)O (stereo not drawn),3.11 µM,12.6 µM
COc1cc(C(=O)N2CCN(c3ccccn3)CC2)c(N)cc1OCc1ccccc1,> 100 µM,> 100 µM
CCOC(NC(=O)CC)(C(F)(F)F)C(F)(F)F,–,> 100 µM
N#CC1(Cc2ccccc2)CCCCN1C(=O)c1ccccc1 (stereo not drawn),–,> 100 µM
OC[C@@H]1CC#C/C=C\C#CC[C@@H]1CO,–,> 100 µM
CN(C)c1ccc(C2SCC(=O)N2c2nc3cc4sc(N5C(=O)CSC5c5ccc(N(C)C)cc5)nc4cc3s2)cc1 (stereo not drawn),–,> 100 µM
O=C(CNC(=O)c1ccccc1)Oc1c(Cl)c(Cl)c(Cl)c(Cl)c1Cl,–,61.9 µM
CCOC(=O)/C(ON)=C(/CC/C(C(=O)OC)=C(\ON)C(=O)OCC)C(=O)OC,–,> 100 µM
OCc1cn(Cc2ccc(Cl)cc2)c2ccccc12,11.1 µM,68.5 µM
COC1CC(C)(NC(C)=O)C2OC(c3ccccc3)OCC2O1 (stereo not drawn),–,> 100 µM
CC(C)(c1cn(Cc2ccccc2)c2ccccc12)c1cn(Cc2ccccc2)c2ccccc12,–,> 100 µM
CCCCCNC(=O)c1cc2cc(CCl)ccc2oc1=O,–,7.28 µM
O=C1/C(=C/c2ccc(O)c(CN3CCCCC3)c2)CCC/C1=C\c1ccc(O)c(CN2CCCCC2)c1,–,33.6 µM
O=C1/C(=N\n2c(-c3ccncc3)n[nH]c2=S)c2cc(Cl)ccc2N1CN1CCCCC1,–,> 100 µM
CCc1ccccc1NC(=O)C1=C(C)NC(C)=C(C(=O)Nc2ccccc2CC)C1c1cccc([N+](=O)[O-])c1,–,> 100 µM
C[n+]1[se]c2ccccc2c1Cl,–,> 74.3 µM
CCn1c2ccccc2c2nnc(NCCCO)nc21,–,> 100 µM
CN(C)C(=O)N(CCCl)N=O,–,> 100 µM

Compound,GI50,TGI
O=CC12c3ccccc3C(c3ccccc31)C1C(=O)NC(=O)C12 (stereo not drawn),–,> 100 µM
Cc1ccc(N=Nc2c(C)nn(-c3ccccc3)c2-c2ccccc2)c(Br)c1,–,> 100 µM
S=c1sc2c(s1)SCc1cccc(n1)CSc1sc(=S)sc1SCc1cccc(n1)CS2,–,> 100 µM
C=C1C(=O)OC2C1C(=O)C/C(C)=C/CCC1(C)OC21 (stereo not drawn),–,> 100 µM
O=C(O)CCn1cnc2c(=S)nc[nH]c21,–,> 100 µM
Clc1ccc(C2=Nc3ccccc3SC(c3cccs3)C2)cc1 (stereo not drawn),–,29 µM
S=C(S)N1CCOCC1,–,> 100 µM
Cc1ncc(-c2nnnn2-c2ccccc2)c(C(=O)O)n1,–,> 100 µM
O=c1ssc2c1Nc1c(ssc1=O)S2,–,32.1 µM
OC1c2c(ccc3c2CCC3)CC12Cc1ccccc1C2 (stereo not drawn),–,32.4 µM
CN(C)C(=S)/N=C1\SC(=Nc2ccccc2)C(=Nc2ccccc2)N1c1ccc([N+](=O)[O-])cc1,–,> 100 µM
COc1ccc2c(c1)OCC1Cc3cc4c(cc3OC21)OCO4 (stereo not drawn),–,> 100 µM
CCCCCCCC/C=C(\Br)C(O)C(Br)Br (stereo not drawn),–,> 100 µM
NC(N)=N/N=C/c1oc(-c2ccc(S(=O)(=O)O)o2)c(-c2ccc(S(=O)(=O)O)o2)c1[N+](=O)[O-],–,> 100 µM
COc1ccc2c(NCCCCCCCCNc3c4ccccc4nc4cc(OC)ccc34)c3ccccc3nc2c1,0.0461 µM,0.308 µM
COc1cc2c(cc1OC)[C@@H]1C(=O)c3cc4c(cc3[C@@H]1N(CCN(C)C)C2=O)OCO4,0.43 µM,4.55 µM
C/C(=N\NC(=O)c1ccc(C(C)(C)C)cc1)c1ccc(O)cc1O,0.383 µM,> 100 µM
CCN(CC)CCOc1cccc2nc3c(cc12)Cn1c-3cc2c(c1=O)COC(=O)C2(O)CC (stereo not drawn),3.29 µM and 5.7 µM,18.8 µM and 29.5 µM
O=C1c2ccccc2C(=O)c2c(Nc3ccc(CCO)cc3)ccc(O)c21,14.7 µM,> 100 µM
COc1cc2c3c(n(CCCn4ccnc4)c(=O)c2cc1OC)-c1cc2c(cc1C3=O)OCO2,0.0576 µM,1.03 µM
Cc1[nH]c(-c2ccccc2)c(O)c1C(=O)OC12CC3CC(CC(C3)C1)C2,–,29.3 µM
